Reference: PubChem BioAssay AID1671194 (National Center for Advancing Translational Sciences (NCATS), 2021)
Where “and” joins values, the source holds several entries; their conditions need not be identical. Equal values may be shown once. The whole screen tested about 140,000 compounds, of which about 240 (0.17%) were called active. The shares of active, inactive and inconclusive entries below differ from those in the screen. The call rests on the fitted dose curve; in most records, active means well fitted inhibition curve with a large enough effect; inconclusive means small, poorly fitted or top-dose-only effect; inactive means no such curve, though single readings can be large or run the other way. A potency beside an inconclusive call is a rough fit, not a confirmed value.

Experiment: Primary qHTS assay for inhibitors of alpha-synuclein gene (SNCA) expression; further: nearly all actives have a fitted effect of over 45% in size
Conditions: HEK-293 SNCA-luciferase knock-in, luminescence, 24 h; series mostly up to 57.2 µM
Potency means the concentration at half of the fitted maximal effect; tags describe the fitted curve by direction and shape.

SMILES	Potency
O=C(O)c1ccc(-c2nc3ccncc3[nH]2)cc1	inactive and inconclusive: 35.5 µM [inhibitor, partial curve, poor fit]
COc1ccccc1Nc1nc(-c2ccccc2F)nc2ccccc12	inconclusive: 17.8 µM [inhibitor, partial curve, poor fit]
c1cc(-c2nc3ccncc3[nH]2)ccn1	inconclusive: 70.8 µM [inhibitor, single point]
COc1ccc(-c2nc(C3CC3)nc3c2CCN(Cc2cccn2C)CC3)cc1	inconclusive: 2.51 µM [inhibitor, single point]
CC1(C)[C@H](Cc2cc(CC3CCCCC3)on2)C[C@@H]1NC(=O)c1ccco1	inconclusive: 39.8 µM [inhibitor, single point]
CCCc1noc(-c2cccn3c(CNC(=O)c4cc(F)ccc4Cl)nnc23)n1	inactive
O=c1[nH]c(C2CCCN(CC3CC3)C2)nn1-c1ccccc1 (stereo not given)	inconclusive: 56.2 µM [inhibitor, single point]
COc1ccccc1OCCNC(=O)c1ccc2c(c1)C(O)CCCCCN2C (stereo not given)	inconclusive: 3.16 µM [inhibitor, partial curve, poor fit]
CC(C)NC(=O)C1CCC(Cn2c(=O)c3sccc3n(Cc3ccc(F)cc3)c2=O)CC1 (stereo not given)	inactive
COc1ccc(-c2nc3c(C)cccc3cc2CN2CC[C@@H](O)C2)cc1	inactive
COc1cc2ccccc2cc1C(=O)Nc1cccc(-c2nc3cc(C)c(C)cc3o2)c1	inactive
Cc1noc(C)c1S(=O)(=O)N1CCOc2ccc(CN3CCOCC3)cc2C1	inactive
O=C(CCc1ccccc1)N1CCN(C(=O)c2nnn3c2COC(c2ccc(Cl)cc2)C3)CC1 (stereo not given)	inconclusive: 28.2 µM [inhibitor, single point]
C=Cc1ccc(Cn2c(C(=O)O)c(CNCc3ccc(F)cc3)c3ccc(C)cc32)cc1	inconclusive: 39.8 µM [inhibitor, single point]
Cc1cc(C)c(NC(=O)CSc2ncc3c(n2)-c2cc(Cl)ccc2N(C)S3(=O)=O)c(C)c1	inconclusive: 39.8 µM [inhibitor, single point]
O=C1CS(=O)(=O)C2(C(=O)N(Cc3ccccc3Cl)c3ccccc32)N1c1ccc(F)cc1 (stereo not given)	inconclusive: 2.24 µM [inhibitor, full curve]
O=C1c2cnc(-c3ccc(O)c(F)c3)nc2OCCN1Cc1ccccc1	inconclusive: 2.82 µM [inhibitor, full curve, poor fit]
CCCC(=O)N(c1ccc2oc(C)c(C(C)=O)c2c1)S(=O)(=O)c1ccc(CC)cc1	inconclusive: 4.47 µM [inhibitor, partial curve, poor fit]
O=C(C[C@@H]1CCNC[C@@H]1Cc1cc(COc2ccccc2)on1)N1CCN(c2ccc(F)cc2)CC1	inconclusive: 17.8 µM [inhibitor, single point]
Cc1cc(F)ccc1OC1CN(Cc2ccc(N(C)C)cc2)C1	inactive
O=C1c2c(nc(CNCc3ccc4c(c3)OCO4)n2Cc2ccccc2)NCCN1Cc1ccccc1F	inactive
C=CCCC(CN1CCCC1)Oc1cncc(C(=O)N2CCCC2)n1 (stereo not given)	inconclusive: 8.91 µM [inhibitor, single point]

SMILES	Potency
COc1cc(CN2CCc3nc(N4CCN(c5ccccn5)CC4)ncc3C2)cc(OC)c1OC	inconclusive: 39.8 µM [inhibitor, single point]
COc1ccc(C(=O)N2CCC(N3CC4(CCCCC4)C3c3ccncc3)CC2)c(OC)c1 (stereo not given)	inactive
CC(C)(C)c1ccc(C(=O)NCC(c2cccs2)S(=O)(=O)c2cccs2)cc1 (stereo not given)	inconclusive: 39.8 µM [inhibitor, single point]
CNC(C)c1cccc(C(F)(F)F)c1 (stereo not given)	inconclusive: 56.2 µM [inhibitor, single point]
CCOc1cc(C(=O)Nc2ccc(-c3nc4ccccc4s3)cc2Cl)cc(OCC)c1OCC	inactive
COc1ccc(C(=O)Nc2cc(S(=O)(=O)c3ccc(Cl)cc3)c(O)c(C)c2C)cc1	inactive
CCS(=O)(=O)NCCc1ncc(C)n1CCOC	inconclusive: 39.8 µM [inhibitor, single point]
Cc1ccc(NCc2cccn2-c2nnc(N3CCC(C(=O)NCCC(C)C)CC3)s2)cc1	inconclusive: 25.1 µM [inhibitor, single point]
N#Cc1c(-n2ncnc2-c2ccccc2C(F)(F)F)sc2c1CCCCC2	inconclusive: 0.178 µM [inhibitor, partial curve, poor fit]
CC(C)c1ccc2oc3nc(N)c(C(=O)O)cc3c(=O)c2c1	inconclusive: 42.9 µM [inhibitor, single point]
Cc1cc(C)c2c(CC(=O)Nc3ccc(S(=O)(=O)N4CCCCC4)cc3)coc2c1	active: 22.4 µM
CC(C)(C)NC(=O)C[C@@H]1CCNC[C@@H]1Cc1cc(-c2ccc(C(C)(C)C)cc2)on1	inconclusive: 44.7 µM [inhibitor, single point]
COc1ccc(C(=O)N2CCC3(CC2)CC(Cc2nc(-c4ccccc4)no2)CCO3)cc1 (stereo not given)	inconclusive: 39.8 µM [inhibitor, single point]
O=C([C@H]1C[C@H](Oc2ccccc2)CN1C(=O)Cc1ccccc1F)N1CCOCC1	inconclusive: 11.2 µM [inhibitor, partial curve, poor fit]
COc1cc(NC(=O)CNS(=O)(=O)c2cccs2)cc(OC)c1OC	inconclusive: 2.82 µM [inhibitor, full curve]
COC(=O)CC(NC(=O)N1CCc2c(nc(-c3ccccc3)[nH]c2=O)C1)c1ccccc1 (stereo not given)	inconclusive: 17.8 µM [inhibitor, single point]
O=C(NCc1ccncc1)c1ccc2nccn2c1	inactive
CCOc1ccccc1CN1CCO[C@@H](COC)[C@@H]1c1ccccc1	inactive
Cc1cccc(C(=O)Nc2ccc(S(=O)(=O)N(Cc3ccccc3)c3ccccc3)cc2)c1	inactive
COc1ccc(C(=O)NCCn2cc(SC(C)c3ccccc3)c3ccccc32)cc1OC (stereo not given)	inconclusive: 12.6 µM [inhibitor, partial curve, poor fit]
Cc1nc(-c2ccc(F)cc2)n(CC(=O)Nc2ccc(C(F)(F)F)cc2)c(=O)c1CCO	inconclusive: 22.4 µM [inhibitor, single point]
CNC(=O)N1CCC(C2CCN(C(=O)c3ccc4ccccc4n3)C2)CC1 (stereo not given)	inconclusive: 35.5 µM [inhibitor, partial curve, poor fit]

SMILES	Potency
O=C(NC[C@H]1COCc2nc3cc(F)ccc3n21)c1ccccc1	inactive
Cc1noc(-c2cn(C3CCN(C(=O)c4ccc(Cl)s4)CC3)nn2)n1	inconclusive: 39.8 µM [inhibitor, single point]
COc1cccc(NC(=O)c2oc3ccccc3c2NC(=O)c2cc3ccccc3o2)c1	inconclusive: 10 µM [inhibitor, partial curve, poor fit]
Cc1cccc(N2CCN(C(=O)C3CCN(c4ncnc5c4nc4n5CCCCC4)CC3)CC2)c1C	inconclusive: 39.8 µM [inhibitor, single point]
CC1(c2ccccc2)CCCN(Cc2nnc(-c3cccnc3)o2)C1 (stereo not given)	inconclusive: 10 µM [inhibitor, full curve, poor fit]
CCOC(=O)Cn1c(=O)oc2cc(S(=O)(=O)N3CCC(C(=O)OCC)CC3)ccc21	inconclusive: 3.55 µM [inhibitor, partial curve, poor fit]
c1c[nH]c(-c2nc3ccncc3[nH]2)c1	inactive
CO[C@H]1[C@H](NC(=O)CC(C)C)c2ccccc2C12CCNCC2	inconclusive: 39.8 µM [inhibitor, single point]
O=C1[C@H](Cc2ccc(O)cc2)N2C(=O)CCN(C(=O)NCc3ccccc3)[C@H]2CN1Cc1cccc2ccccc12	inconclusive: 21.5 µM [inhibitor, partial curve, poor fit]
COCc1nncn1C1CCN(C(=O)Cc2ccccc2Cl)CC1	inactive
Cc1cc2cc(-c3c(C)noc3C)nc(-c3ccc([S+](C)(=O)[O-])cc3)c2o1	inactive
CCC(CC)NC(=O)c1ccc2c(c1)N(S(C)(=O)=O)CC2	inconclusive: 1.78 µM [inhibitor, partial curve, poor fit]
COc1ccc(C(=O)Nc2ccc(-c3cc(C(F)(F)F)nn3-c3ccccc3)cc2)cc1OC	inconclusive: 39.8 µM [inhibitor, single point]
O=C(NCc1ccccc1F)c1nc2cccnc2n(Cc2ccccc2)c1=O	inactive
COc1ccc(CCC(=O)NCc2ccc3c(c2)CCN3C(=O)c2cccc(C)c2)cc1	inconclusive: 39.8 µM [inhibitor, single point]
Cc1cc(NC(=O)CN(c2cccc(C)c2C)S(=O)(=O)c2ccccc2)ccc1Br	inconclusive: 14.1 µM [inhibitor, single point]
COC(=O)c1cc2n(n1)CCCN(S(=O)(=O)c1ccc(-c3ccno3)o1)C2	inactive
CCN1CCC(N2CCCC(N3CCN(c4ccccc4OC)CC3)C2)CC1 (stereo not given)	inconclusive: 8.91 µM [inhibitor, single point]
CCN1CCN(C(=O)c2ccc3c(c2)N(Cc2cc(C)ccc2C)C(=O)c2ccccc2S3(=O)=O)CC1	inactive
CCn1ccc(C(=O)N2CCC(N3C(=O)C(OCC4CC4)C34CCOCC4)CC2)n1 (stereo not given)	inactive
O=S(=O)(c1ccc2c(c1)CCC2)N1CCCC1Cc1noc(-c2ccccc2)n1 (stereo not given)	inconclusive: 11.2 µM [inhibitor, partial curve, poor fit]
